Measured values published in PubChem BioAssay AID1508642 (National Center for Advancing Translational Sciences (NCATS), 2021).
Hit rate of the full screen: of about 43,000 compounds, about 200 (0.47%) were called active. Another 12% or so got no clear call; they are omitted. Calls follow the shape of the dose curve; as a rule, active = well fitted cell-killing curve with a large enough effect; inconclusive = small, poorly fitted or top-dose-only effect, or effect the other way; inactive = flat fitted curve, though single readings scatter. The list shows a part of the results.

Experiment: Cell viability qHTS assay in S16 Pmp22-F2sN cells; also: nearly all actives have a fitted effect of over 65% in size
Details: S16 Pmp22-F2sN Schwann cells viability, CellTiter-Glo, 24 h; series mostly up to 57.5 µM; activity change, negative = cytotoxicity: at the top concentration
Outline: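 Used to flag compounds lowering reporter output through toxicity, this quantitative HTS measures ATP-based CellTiter-Glo luminescence in S16 Pmp22-F2sN Schwann cells after 24 h compound exposure at 37C.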
% is scaled to controls: 0 for no effect and ±100 for the full control effect.

Row | Structure (SMILES) | activity change, negative = cytotoxicity
1 | CCOC(=O)c1[nH]c(C)c(CCC(=O)Nc2ccc(N(CC)CC)cc2C)c1C | inactive: -24.1%
2 | COc1cc(CNC(=O)c2cc3n(n2)CCCN(Cc2ccc(C)cc2)C3=O)cc(OC)c1OC | inactive: -8.42%
3 | Cc1c(NC(=O)c2sc3c([N+](=O)[O-])cccc3c2Cl)cccc1-c1nc2ccccc2o1 | inactive: 4.54%
4 | Cc1ccc(-c2c3c(=O)n(C)c(=O)n(C)c3c3c(C(F)(F)F)nc4ccccc4n23)cc1 | inactive: -0.94%
5 | O=C1CC(c2ccc(Cl)cc2)Sc2nc(-c3ccc(F)cc3)nn21 (stereo unspecified) | inactive: 5.69%
6 | CCOc1ccc(CNS(=O)(=O)c2cc(-c3cc(C)no3)ccc2C)cc1OC | inactive: -0.491%
7 | COc1ccc(-c2cnc(C)o2)cc1S(=O)(=O)Nc1ccc(C)c(N(C)C)c1 | inactive: 6.85%
8 | Cc1ccc(NC(=O)CCC(=O)N2Cc3ccccc3Oc3ncccc32)cc1 | inactive: -16.2%
9 | O=C(CCc1ccccc1)NC1CC(=O)N(c2ccccc2)C1 (stereo unspecified) | inactive: 8.56%
10 | COc1cccc(OC)c1C(=O)Nc1ccc2c(c1)N(C(C)=O)CCC2 | inactive: -0.796%
11 | CCc1cnc2c(c1SCC(=O)Nc1ccc(C)cc1C)c(=O)n(C)c(=O)n2C | inactive: 8.55%
12 | CCCn1c(=O)c2sccc2n2c(CCCC(=O)Nc3cccc(CC)c3)nnc12 | inactive: -9.64%
13 | CCn1c(=O)cc(SCC(=O)NCCc2ccc(OC)cc2OC)c2ccccc21 | inactive: 4.9%
14 | Cn1c(=O)[nH]c2cc(-c3noc(-c4ccc(F)cc4)n3)ccc21 | inactive: 0.601%
15 | COCCCNC(=O)CSc1nc(-c2ccccc2)[nH]c1-c1ccc(C)cc1 | inactive: -9.07%
16 | CCc1ccc(-n2c(=O)c3c4c(sc3n(CC(=O)NC(C)CC)c2=O)CCCC4)cc1 (stereo unspecified) | inactive: 5.95%
17 | COc1ccccc1CNC(=O)CCCCn1c(=O)c2ccccc2n(CC(=O)Nc2cc(Cl)ccc2C)c1=O | inactive: -0.985%
18 | O=C(O)CCc1ccc(-c2ccccc2)n1CC(=O)Nc1ccccc1C(F)(F)F | inactive: 6.43%
19 | COc1ccc2c(c1)c1c(c(=O)n(-c3ccccc3C)c(=O)n1CC(=O)Nc1c(C)cccc1C)n2C | inactive: -1.18%
20 | Cc1ccccc1Nc1nn2c(=O)c3ccc(C(=O)N4CCCC(C)C4)cc3nc2s1 (stereo unspecified) | inactive: 1.56%
21 | O=c1c2[nH]c3ccccc3c2nc(SCc2cccc(F)c2)n1-c1ccccc1 | inactive: 4.26%

Row | Structure (SMILES) | activity change, negative = cytotoxicity
22 | Cc1ccc(-c2ccc(=O)n(CC(=O)NCc3ccc(F)cc3)n2)cc1 | inactive: -0.087%
23 | CCC(C)NC(=O)C1CCC(CNS(=O)(=O)c2ccc(Cl)cc2)CC1 (stereo unspecified) | inactive: -8.29%
24 | COc1ccc(-c2nc3n(n2)C(=O)CC(c2ccc(Cl)cc2)S3)cc1 (stereo unspecified) | inactive: 3.05%
25 | CCn1c2ccccc2c2cc(NC(=O)COc3ccc(C)c(C)c3)ccc21 | inactive: -3.37%
26 | Cc1ccc2nc3c(cc(C(=O)NC4CCCCC4)c(=N)n3C(C)C)c(=O)n2c1 | inactive: 6.86%
27 | CCOC(=O)c1ccc(NC(=O)CC2NCCNC2=O)cc1 (stereo unspecified) | inactive: -10.7%
28 | CCOC(=O)C1CCN(S(=O)(=O)c2ccc3c(c2)NC(=O)C(C)C(=O)N3)CC1 (stereo unspecified) | inactive: 0.994%
29 | COC(=O)c1c(NC(=O)COc2cc(C)ccc2C(C)C)sc2c1CCC(C)C2 (stereo unspecified) | inactive: 6.64%
30 | CC(=O)c1ccc(N2CCN(S(=O)(=O)c3ccc(-c4cc(C)no4)s3)CC2)cc1 | inactive: -3.15%
31 | Cc1cc(C)c(S(=O)(=O)n2cnc(C)c2)c(C)c1 | inactive: 12.3%
32 | COC(=O)c1ccc(NC(=O)C2CCN(C(=O)c3ccc(F)cc3)CC2)cc1 | inactive: 15.2%
33 | N#Cc1cccc(NC(=O)C2CCN(c3ncccn3)CC2)c1 | inactive: 12.7%
34 | CCS(=O)(=O)CCSc1nc(-c2ccc(Br)cc2)cc(-c2ccccc2)c1C#N | inactive: 11.7%
35 | Cc1cccc(NC(=O)CCn2nc(-c3ccccc3)c3ccccc3c2=O)c1 | inactive: -11.6%
36 | CC1=C(C(=O)Nc2ccccc2C)C(c2cccnc2)n2nc(SCc3ccccc3F)nc2N1 (stereo unspecified) | inactive: 17%
37 | O=C(CCn1c(=O)c2cccn2c2cccnc21)N1CCN(c2cccc(Cl)c2)CC1 | inactive: 1.61%
38 | CCc1ccc(OCC(=O)N(Cc2ccc(OC)cc2)C2CCS(=O)(=O)C2)cc1 (stereo unspecified) | inactive: 10.1%
39 | CN1C(=O)Cc2cc(S(=O)(=O)NCCc3ccccc3)ccc21 | inactive: 3.85%
40 | COc1ccc(NC(=O)C2CCCN2S(=O)(=O)c2ccc3nc(-c4ccccc4)[nH]c3c2)cc1 (stereo unspecified) | inactive: 10.5%
41 | COc1ccc(CCNC(=O)c2ccc3c(c2)N(Cc2ccc(Cl)cc2)CCS3)c(OC)c1 | inactive: -10.4%
42 | CCOC(=O)c1cc(-c2ccc(C)cc2)n(CCC(=O)Nc2ccc(OC)c(OC)c2)c1C | inactive: -17.4%

Row | Structure (SMILES) | activity change, negative = cytotoxicity
43 | COCCCNC(=O)Cn1cnc2sc(C)c(S(=O)(=O)N3CCN(c4ccccc4OC)CC3)c2c1=O | inactive: -2.54%
44 | CCN1CCN(C(=O)c2ccc3c(c2)N(Cc2cccc(F)c2)C(=O)c2ccccc2S3)CC1 | inactive: -0.459%
45 | COc1ccc(-c2nc3sc(CCNC(=O)C(=O)Nc4c(C)cccc4C)c(C)n3n2)cc1 | inactive: 0.967%
46 | CC1CCCN(CCCNC(=O)CN2C(=O)CSc3ccc(S(=O)(=O)N4CCOCC4)cc32)C1 (stereo unspecified) | inactive: 19%
47 | COc1ccc(N2CCN(C(=O)c3oc4ccccc4c3NC(=O)c3ccccc3OC)CC2)cc1 | inactive: -3.3%
48 | CCOc1ccccc1NC(=O)Cn1nnc(C(=O)Nc2ccc(C)c(C)c2)c1N | inactive: 1.44%
49 | Cc1c(C(=O)N2CCC(C)CC2)c(S(=O)(=O)N2CCN(c3ccc(Cl)cc3)CC2)c(C)n1C | inactive: 0.676%
50 | CC(C)(C)OC(=O)N1CCC(c2c(C(=O)NC3CCCCC3)cnn2-c2cccc(Cl)c2)CC1 | inactive: -6.79%
51 | Cn1nccc1C(=O)NCc1ccc2c(c1)CCN2C(=O)c1ccccc1 | inactive: 6%
52 | Cc1ccc(Cl)cc1N1CCN(S(=O)(=O)c2cc3[nH]c(=O)c(=O)[nH]c3cc2C)CC1 | inactive: 4.22%
53 | O=C(Cn1c(=O)oc2cc(S(=O)(=O)NC3CCCC3)ccc21)Nc1ccc(F)c(F)c1 | inactive: 0.0318%
54 | COc1cccc(C2CC(=O)Nc3c2c(=O)nc2c(C)cccn32)c1OC (stereo unspecified) | inactive: 6.72%
55 | Cc1ccc(-c2nc3cc(Cl)ccc3o2)cc1NC(=O)COc1ccc(F)cc1 | inactive: 12.3%
56 | CC1=C(C(=O)OC2CCCC2)C(c2ccccc2Cl)CC(=O)N1 (stereo unspecified) | inactive: 3%
57 | CCOC(=O)c1ccc(NC(=O)CN2C(=O)COc3ccc(Cl)cc32)cc1 | inactive: 1.53%
58 | Cc1cccc(C(=O)Nc2ccccc2SCc2cc(=O)c3cccc(C)c3[nH]2)c1 | inactive: -13.4%
59 | Cc1nnc(N2CCN(c3ccccc3F)CC2)c2c1nnn2Cc1ccccc1 | inactive: -18.4%
60 | COc1ccc(NC(=O)CCn2cccn2)cc1OC | inactive: -0.947%
61 | CCOCCc1nn2c(=O)cc(COC(=O)C(CC)c3ccccc3)nc2s1 (stereo unspecified) | inactive: 9.42%
